# Assay results taken from PubChem BioAssay AID463173 (ICCB-Longwood Screening Facility, Harvard Medical School, 2010).
# Screen size: about 52,000 compounds; about 1,700 (3.3%) were called active. Cut-off read from the data, not from the text of the source: active = survival mostly below about 52% (no sharp cut-off); inactive = mostly above about 56%. This is one part of the list.
# Tested on: Wild type
# Experiment: S. aureus survival, RN4220 and DeltatarO strains – OD600, teichoic acid synthesis inhibitors, primary screen (AID 463173)
# Conditions: S. aureus RN4220 wild type/DeltatarO growth, OD600, 18 h, active compounds read low, screened at 18.75 µg/mL (by protocol)
row,SMILES,survival
1,CCC(OC(=O)C1=Cc2ccccc2OC1)C(=O)NC1CCCC1 (centres undefined),inactive: 112%
2,CCCSc1nc(=O)c2c(n1C)NC(=O)CC2c1cccc(F)c1F (centres undefined),inactive: 82%
3,O=C(Cn1c(-c2cccs2)cc2cc(Cl)ccc21)NCc1ccccc1,inactive: 69%
4,CCc1cc(C(=O)Nc2cnn(Cc3ccc(F)cc3)c2)no1,inactive: 70%
5,Cc1cccc(NC(=O)Cn2cc(S(=O)(=O)c3ccc(F)cc3)c(=O)c3cc4c(cc32)OCO4)c1,inactive: 123%
6,CCC(=O)N1CCc2cc(Br)cc(S(=O)(=O)NCCc3ccccc3Cl)c21,inactive: 73%
7,Cc1ccc(-c2c(C(=O)N3CCN(c4cccc(C)c4C)CC3)oc(=O)c3ccccc23)cc1,inactive: 86%
8,CC(=O)c1cccc(NC(=O)c2cnn(-c3cccc(C)c3)c2-n2cccc2)c1,inactive: 124%
9,COc1ccc(OC)c(CCNC(=O)c2cc3c(-c4ccccc4F)nn(C)c3s2)c1,inactive: 88%
10,CC(C)(C)NC(=O)C1CC(=O)OC1(C)C (centres undefined),inactive: 107%
11,COc1ccc(C)cc1NS(=O)(=O)c1ccc2c(c1)[C@H]1C=CC[C@H]1[C@@H](c1cccc(Cl)c1)N2,inactive: 97%
12,Cc1cc(C)cc(NC(=O)CSCn2nnc3c(=O)[nH]c(Cc4ccc(F)cc4)nc32)c1,inactive: 86%
13,COc1ccc(CCNC(=O)CCc2c(C)nc3cc(-c4ccccc4)nn3c2C)cc1OC,inactive: 93%
14,CCOc1cc(C(=O)Nc2ccc3oc(-c4ccc(CC)cc4)nc3c2)cc(OCC)c1OCC,inactive: 71%
15,COc1ccccc1CCNC(=O)CCn1c(=O)c2cccn2c2ccc(F)cc21,inactive: 49%
16,Cc1noc(/C=C/c2ccco2)c1S(=O)(=O)N1CCC(C(=O)Nc2ccc(F)cc2F)CC1,inactive: 71%
17,CCOC(=O)c1cccc(NC(=O)Cn2c(=O)nc(-c3ccccc3)c3ccccc32)c1,inactive: 68%
18,O=C(Nc1cc(C(F)(F)F)ccc1Cl)c1cc(S(=O)(=O)NCc2ccccc2)ccc1F,active: 14%
19,Cc1cccc(OCc2ccc(-c3nc(C#N)c(N4CCC(C(N)=O)CC4)o3)o2)c1,inactive: 102%
20,CCc1cc2c(cc3c(=O)n(CCCC(=O)NCc4ccccc4Cl)nc(CC)n32)s1,inactive: 73%
21,CCCCN(Cc1ccccc1)C(=O)CN(C)S(=O)(=O)c1ccc2c(c1)c(=O)n(C)c(=O)n2C,inactive: 130%
22,Cc1ccc(OCC(=O)Nc2ccc3nc(SCc4ccccc4)sc3c2)cc1,inactive: 93%
23,CCOC(=O)c1cccc(NC(=O)CC2C(=O)N(c3ccc(F)cc3)C(=O)N2C(C)C)c1 (centres undefined),inactive: 69%

row,SMILES,survival
1,COc1ccc(NC(=O)C(Cc2ccccc2)NS(=O)(=O)c2ccc(Br)s2)cc1OC (centres undefined),inactive: 66%
2,COCCCNC(=O)CC(c1cc(OC)c(OC)c(OC)c1)N1Cc2ccccc2C1=O (centres undefined),inactive: 72%
3,Cc1ccc(-c2nc3ncccc3o2)cc1NC(=O)COc1ccc(C(C)C)cc1,active: 11%
4,Cc1cc(C)c2nc(-c3ccco3)cc(C(=O)O)c2c1,inactive: 106%
5,Cc1ccc(C)n1CCC(=O)O,inactive: 115%
6,COc1ccc(CCNC(=O)c2cnc3sc(N4CCCC4)nn3c2=O)cc1OC,inactive: 74%
7,CN(C(=O)c1cc2c(s1)-c1ccc(Cl)cc1SC2)c1cccc(C(F)(F)F)c1,inactive: 54%
8,O=C(CN1C(=O)COc2ccc(S(=O)(=O)N3CCCCC3)cc21)NCc1ccc(Cl)cc1,inactive: 65%
9,Cc1ccc(CNC(=O)c2nnn(CC(=O)Nc3cc(C)ccc3C)c2N)cc1,inactive: 75%
10,CSCCC(NS(=O)(=O)c1ccc2c(c1)oc(=O)n2C)C(=O)N1CCN(c2cccc(Cl)c2)CC1 (centres undefined),inactive: 68%
11,CCOc1ccc(-c2nnc(-c3ccc(Br)cc3)o2)cc1OCC,inactive: 107%
12,Cc1ccc(CN(Cc2ccco2)C(=O)COc2ccc(Cl)cc2)o1,inactive: 84%
13,CCOc1ccc(-c2cc(-c3nc(-c4cc(OC)c(OC)c(OC)c4)no3)[nH]n2)cc1,inactive: 123%
14,COc1cc(NC(=O)c2cc3ccccn3n2)cc(OC)c1OC,inactive: 66%
15,COc1ccccc1NC(=O)CC(C)(C)C,inactive: 108%
16,CCc1ccccc1NS(=O)(=O)c1ccc(NC(=O)N2CCCC2)cc1,inactive: 75%
17,c1ccc(Nc2nc(-c3ccncc3)cs2)cc1,inactive: 123%
18,Fc1ccc(-c2noc3ncnc(NCC4CCN(Cc5ccc(Cl)cc5)CC4)c23)cc1,inactive: 81%
19,CC(=O)c1ccc(NC(=O)c2ccc(-c3nc(CSc4ccccc4)c(C)o3)cc2)cc1,inactive: 55%
20,CN1C(=O)CC(C(=O)O)SC1=Nc1cccc(C(F)(F)F)c1 (centres undefined),inactive: 116%
21,COc1cc(NC(=O)c2cc(C)nc3c2c(C)nn3-c2ccccc2Cl)cc(OC)c1,inactive: 76%
22,CCn1nnnc1SCC(=O)N1c2ccccc2CCc2ccccc21,inactive: 107%
23,CCn1c(SCC(=O)Nc2cccc(Cl)c2C)nnc1C1CC1,inactive: 99%

row,SMILES,survival
1,Cc1ccc2cc3c(N)nn(C(=O)c4cccc(F)c4)c3nc2c1,inactive: 81%
2,Cc1cc(C)cc(NC(=O)Cn2nnc(-c3nc(-c4ccncc4)no3)c2N)c1,inactive: 71%
3,Cc1cc2c(cc3c(SCc4nc(-c5ccccc5)oc4C)nnc(C)n32)o1,inactive: 85%
4,Cc1ccc(N2CCN(S(=O)(=O)c3ccc(F)c(C(=O)Nc4ccc(Cl)cc4Cl)c3)CC2C)cc1 (centres undefined),active: -6%
5,COc1cc(C(c2nnnn2Cc2ccco2)N2CCN(C3CCCC3)CC2)cc(OC)c1OC (centres undefined),inactive: 107%
6,O=C(Nc1ccccc1)C1CCCN1C1CCCCC1 (centres undefined),inactive: 108%
7,CCn1ccc2c(OCC(=O)Nc3ccccc3C)cccc2c1=O,active: 0%
8,COc1ccc(N2CCN(C(=O)c3cccc(NC(=O)c4nsc5ccccc45)c3)CC2)cc1,inactive: 131%
9,CCOC(=O)c1ccc(NC(=O)Nc2cc3c(cc2N2CCCC2)n(C)c(=O)n3C)cc1,inactive: 84%
10,CCC(=O)Nc1cccc(NC(=O)c2cccs2)c1,inactive: 113%
11,O=C(Nc1ccc2nc(SCC(=O)N3CCCc4ccccc43)sc2c1)c1ccccc1,inactive: 86%
12,COc1cccc(CNC(=O)c2cc(C)nc3c2c(C)nn3-c2cccc(F)c2)c1,inactive: 131%
13,COc1ccc(S(=O)(=O)Nc2ccc3c(c2)CCCN3S(=O)(=O)c2ccc(C)cc2)cc1F,inactive: 71%
14,Nc1c(C(=O)Nc2ccc(F)c(F)c2)sc2nc(-c3ccncc3)ccc12,inactive: 96%
15,COC(=O)c1cc(NC(=O)c2nn(C)c3c2COc2ccccc2-3)cc(C(=O)OC)c1,inactive: 86%
16,O=C(Cc1ccccc1)NC1CCN(S(=O)(=O)c2cccc(F)c2)CC1,inactive: 124%
17,Cc1ccc(C(CC(=O)O)C2CCOC(C)(C)C2)cc1 (centres undefined),inactive: 122%
18,COc1ccccc1NC(=O)C1=C(C)Nc2nc(SCc3ccccc3F)nn2C1c1cccs1 (centres undefined),inactive: 73%
19,O=C(COCc1cc(-c2ccc3c(c2)OCO3)on1)N1CCN(c2ccccc2)CC1,inactive: 99%
20,CCC(CC)C(=O)Nc1nc2c(s1)CC(C)CC2 (centres undefined),inactive: 98%
21,COc1ccc(-n2nnnc2C2CCN(S(=O)(=O)c3ccc(C(C)(C)C)cc3)CC2)cc1,inactive: 87%
22,Cc1ccc(S(=O)(=O)NCCc2cn3ccsc3n2)cc1,inactive: 57%
23,COc1ccc(NC(=O)CCc2nnc3n(CC(C)C)c(=O)c4ccccc4n23)cc1,inactive: 91%

row,SMILES,survival
1,COc1ccccc1CCNS(=O)(=O)c1ccc(N2CCCCS2(=O)=O)cc1,inactive: 88%
2,CSc1nc(NNC(=O)c2ccco2)c2c3c(sc2n1)COC(C)(C)C3,inactive: 102%
3,CCc1ccccc1NC(=O)C1CCCN(c2ncnc3onc(C)c23)C1 (centres undefined),inactive: 70%
4,COc1ccc(CNC(=O)c2ccc(CS(=O)Cc3ccccc3Cl)o2)cc1 (centres undefined),inactive: 95%
5,Cc1ccc(C2c3[nH]c4ccccc4c3CCN2C(=O)CCC2CCCC2)cc1 (centres undefined),inactive: 69%
6,Cc1nc2ccn(Cc3ccco3)c(=O)c2cc1C(=O)N1CCN(c2ccccc2)CC1,inactive: 66%
7,Cc1ccc(NC(=O)Cn2ccn(-c3ccc(F)c(F)c3)c(=O)c2=O)cc1C,inactive: 78%
8,Cc1ccc(-n2nc(C(=O)N3CCN(c4cc(Cl)ccc4C)CC3)c3c4ccccc4n(C)c3c2=O)cc1,inactive: 78%
9,Cc1cccc2cc(CNCC3CCCO3)c(Cl)nc12 (centres undefined),inactive: 129%
10,Cc1ccc(Cl)cc1-n1ncc2c(Nc3cccc(C)c3C)ncnc21,inactive: 72%
11,O=C(c1ccc(CSc2nc3ccncc3n2Cc2ccccc2)cc1)N1CCCCCC1,inactive: 77%
12,CC(C)c1ccc(OCC(=O)N(Cc2ccc(N(C)C)cc2)C2CCS(=O)(=O)C2)cc1 (centres undefined),inactive: 71%
13,C=Cc1ccc(CSc2nc(-c3ccc(C)cc3)nc3c2Cc2c(CO)cnc(C)c2O3)cc1,inactive: 84%
14,Cc1cccc(NC(=O)C(NS(=O)(=O)c2ccc3c(c2)oc(=O)n3C)C(C)C)c1 (centres undefined),inactive: 83%
15,O=c1c(S(=O)(=O)c2cccc(Cl)c2)cn(Cc2ccccc2)c2cc(N3CCOCC3)c(F)cc12,inactive: 51%
16,O=C(Nc1cccc(C(=O)OCc2cc(=O)n3c4c(sc3n2)CCCC4)c1)c1ccccc1,inactive: 75%
17,Cc1ccc2nc(-c3cccnc3)c(Nc3ccccc3C)n2c1,inactive: 99%
18,CCc1ccc(NC(=O)Cn2c(=O)n(Cc3ccco3)c(=O)c3cccnc32)cc1,inactive: 122%
19,CCCNC(=O)CCSc1nc(-c2ccc3c(c2)OCO3)cc(C(F)(F)F)n1,inactive: 84%
20,Cc1cc(C)c2nc(N(Cc3cccnc3)C(=O)CCOc3ccccc3)sc2c1,inactive: 56%
